# Assay results reported in patent publication US20250163127A1 (published 2025).
# B1: PD-L1 303-CTLA-4 2655-Fc (Fc fusion)
# chain: FTVTVPKDLYVVEYGSNMTIECKFPVEKQLDLAALIVYWEMEGKDIIQFVHGEEDQKAQHSSYRQRARLLKDQLSLGNAALQITDVKLQDAGVYRCMISYGGGADYKRITVKVNAGSGGSGGGGSGGGG[about 120 residues left out here][about 250 residues left out here]
# How the values were obtained:
# [1] = target: T1, human CD80 (human); test: cell-based or functional assay
# T1 chain: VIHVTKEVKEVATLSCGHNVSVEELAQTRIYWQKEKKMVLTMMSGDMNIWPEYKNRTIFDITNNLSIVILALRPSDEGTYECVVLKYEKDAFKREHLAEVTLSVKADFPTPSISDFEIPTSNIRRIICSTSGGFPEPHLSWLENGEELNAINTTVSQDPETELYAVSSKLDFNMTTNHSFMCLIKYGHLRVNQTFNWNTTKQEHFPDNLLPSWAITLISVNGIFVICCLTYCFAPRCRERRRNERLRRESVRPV
# [2] = target: PD-1 (human, UniProt Q15116); test: cell-based or functional assay
binder,measurement,setting,value
B1,% CD25 Hi FoxP3 +,[1],30.3 % at 100 nM
same,% CD25 Hi FoxP3 +,[2],30.3 % at 100 nM
